Values marked as one replicate rest on one cluster of the flow cell; about a third of the high ones do not repeat.
Tested on: ATP
Assay: switch fluorescence ratio, 500 uM ATP over buffer (Cy3 cluster intensity, sum of 5 cycles each) (fold (ratio)); higher = stronger signal-on switching upon ATP binding; sequences stand for … in TCGTCGGCAGCGTCAGATGTGTATAAGAGACAGTTTTTTTTTTTTTTTTTTTTTTTTT…TC
Conditions: aptamer strand: ATP DNA aptamer (quencher-CACCTGGGGGAGTATTGCGGAGGAAGG + anchor), 100 nM annealed; ATP concentration: 500 uM; one replicate
How it was run: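 Per cluster, summed Cy3 intensity from the target cycles was divided by that from the buffer cycles to give the fluorescence ratio, then averaged per switch-domain sequence. Clusters outside 100-1000 RFU were excluded. The Cy3-labelled switching-strand clusters, on a modified Illumina MiSeq flow-cell, were annealed to 100 nM quencher-labelled ATP aptamer and imaged in selection buffer, then after 15 min with 500 uM ATP at 22 °C, for five cycles with NaOH stripping and re-annealing between them.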
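Note: ATP exposure 15 min at 22 °C before imaging.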

Sequence	switch fluorescence ratio
GTCGCCCTCG	1.01
ATTATCGGGG	1.03
ATGTTCCAGC	0.963
GGGGGCGCTC	1
ATAGTCTCTG	1.06
CCACATGGA	1.02
ACCTAGCGCT	1.01
TAAACCGCAT	2.65
GAGAGCCACT	0.941
TGACGGTTGC	1.07
CGACGTAACA	1.13
CGGAAAATGA	0.988
TCGTGGGTTG	1.03
CATTATGAGT	1.03
AGGTACGAGT	0.997
CGGCACGGGT	0.974
AACCCCGTAA	2.05
GCGGGTGCCT	1.03
AAAGGTTT	0.999
GCTAGGGAAG	1.02
GGCTGTTTAG	1
TCTTCACCCG	1.44
GTCAAACGGG	1.01
CCAGACAA	1.16
CCTAGTTAG	1.05
AGGTCCGGGG	1.02

Sequence	switch fluorescence ratio
CTTGGTCAAC	1.04
CGTCCCTTCT	1.02
ACCGATGAAT	1.09
CCGTGGTGCG	1.04
AGTAACCCGG	1.06
ACGGGTGAAC	0.987
TATCCAAATG	1.08
CGAAATGCGT	0.995
ACTTATAGCC	1.03
ACATGGTGCG	1.04
GATTTTGCAC	0.97
TTTGAACGGT	0.995
TCCTCATCGT	1.14
GATGAACGCG	1.01
CGACAGAATT	0.974
CATTGTCACG	1.03
TGCGCAGTGT	1.01
AAAATCGCA	1.01
ATGCACATGT	1.08
TGCTAAGGCT	1.01
ATCAGGGTAG	0.964
CTGTGTAGGA	1.01
TTGGACTCTA	1.06
CGCCTCAGGA	1.06
GGTCACTTAG	1.02
CCTATCTGCG	0.996

Sequence	switch fluorescence ratio
TTCCGACTGT	1.56
TTCCGCAGGG	1.5
GTTTATTTAT	0.994
ATGTTCAAAA	0.971
TGAGGAGGGT	0.959
ACATGCCATG	1.03
CCTAGATGTC	1.07
CGTCAAAAGA	1.11
CGACTCTGCG	1.08
CGATATGTGC	1.02
TGTAGTGTGT	0.937
TTTGCAGGTG	3.36
GGCTCTGCTT	0.989
TATACTGTT	0.975
GCTTGGTTGG	0.961
TGCGGTTCTC	1.01
ATGCGAGGG	1.01
TCCAGAGGCC	1.08
GAACCGAGGT	1.04
ATCGGTAAGT	1.01
TGAGTCTGAA	0.987
TCCTCCACTT	2.57
CTATGAAAAA	1.07
CATGCTAAGC	0.984
TATAAGTGC	1.02
GAGCGAGTTG	0.985

Sequence	switch fluorescence ratio
ATTTCAAAGT	1.01
ATGAATGGCT	0.938
TCGAAGCGCG	0.948
GGCTCAAAAC	1
AGGAAAGTCG	0.996
ACACCCTGGA	1.24
GAAGTTCTTA	0.981
GCTGGTCTA	0.995
TATTATAGCC	1.03
CATAGTCTTC	1.03
TAGGGTCAGA	0.985
GTTGTGGTAG	0.99
GGCGGTTTTT	1
CGCATATGGG	1.06
CACGAAGTG	0.984
GGACGCGCAT	1.15
AAGGTTAAAG	1.01
TGCTCTATAT	1.02
ACCTAGTAGC	1.03
ACGTTTGAAG	1
GGGGCAAGTC	1.12
AATAATAGG	1.01
CGATGAATCG	0.994
GTACGTCCGA	1.05
ACGTTCATCT	1.02
CACCCGGACT	1.08

Sequence	switch fluorescence ratio
GCCGCGTCCT	1.02
TACGCTTC	1.02
CCAAACGATG	0.986
TCCCCGGGAG	1.07
TAACTATGCT	1.03
TTTTTTTGT	0.991
GCTGTAGTG	1.03
TAGTAACGGC	0.934
GTCGATAGGA	0.94
AAGTTCCTCG	1.22
GATTCTGCTG	1.01
ATCGTACCAC	1.01
AGGAGTGGCT	0.991
GTTGTCGCTG	0.998
TAGCAGACAC	1.53
TGAGCTTACT	1.29
ACCTCGAGCC	1.08
TAATGTACGT	1
ATGCGCGGCG	1.04
AAAATTAATC	1.05
CTATTATGAG	1.06
TTTTCATCCA	0.985
TAGTCATGGT	1.01
TGCGACTAAA	1.06
TATCAGGCC	1.02
CACATCAGTG	1.02

Sequence	switch fluorescence ratio
TAATTGTAGC	0.955
GTGACGCACG	1.04
GAATTGTATC	1.01
CGGCATGGCA	0.984
GTGAAAAAAC	1.13
TTGACCGA	1.02
AACTCCTCTT	1.42
AATTTGCTAG	1.04
ATGTGAGTAA	1.02
TTTCCTCACC	1.22
TACCCTTTTC	1.05
GGATAAACGA	0.977
TTCTAGTTAT	0.998
TTAACTAGTA	0.989
TCCCGTTCTT	0.996
ACATTGGGAC	1.1
TAGCTGGGCT	0.997
CTGCGACGTG	0.963
TGATGCTGCG	1.02
CGTGTATGCG	0.906
AATAGCCGTT	1.02
GGATCCAGAC	1.01
CGGCGGATTT	1.05
TTGCACGTGA	1.09
ATCCTGGAAT	0.96
TGTTTAGTT	1.04

Sequence	switch fluorescence ratio
AATTCTGCCC	1.03
TAATCGTTTT	0.965
GTCGGCTTAG	1
TCGAATCGCG	0.996
AAGGATTCAT	0.992
CTAAATCTTG	1.02
CGAGCACCAG	1.19
AATGAGGCAA	1.41
TCATGATCGG	0.958
TTATCGTTCT	0.978
TGTGGCTCCA	0.966
CCACGCGGTA	1.72
CGTTACCGAG	1.02
TTCAATGAG	1.02
TCATCCATGC	1.28
GGGGAAAGT	0.945
TACCGGCACA	1.25
GTGGTGGAGA	1.01
ATATACGGAG	1
CGTTCTGAGG	0.974
CGGACAAAAA	1.02
TAAGTGTAT	1.02
TGTAACGACG	1.04
ATCGGACTAT	1.04
CGTACGTTTG	1.02
TGGCGGGAGG	0.992

Sequence	switch fluorescence ratio
GCCTAGGGTA	0.981
CCGGAGGGTT	1.01
GAATTGAGAC	1.01
TACTGGGGG	1.01
TATTAGTCA	0.995
GCGTGCCGCT	0.99
TCAGCTAGAT	1.07
CCGTAAATCA	1.21
CCGTTCGGGC	1.09
GCTCAGGCAA	1.2
GAGGTCTCTC	0.957
AGATGAGTAG	0.988
CATACGTGTC	1.25
CGGGGTATAA	1.02
AGTGTTATGA	1.01
CAAGCGACAC	2.39
GGCGGGATTA	1.02
GTTCTTTTTA	0.964
GATTCGAGGA	1.02
